# In PubChem BioAssay (NCATS):
# Values joined by “and” are separate entries in the source; they are usually repeats but may differ in a detail not shown here. Identical values can stand only once. This list was built around the results that the source calls inconclusive (neither active nor inactive); the mix of calls is not that of the screen. For part of these data: Potencies of inconclusive entries are left out as doubtful fits. For part of these data: “Side channel” marks fits to a control or component signal instead of the main read-out. Active and inactive are the calls of the source. Unless noted, calls follow the shape of the full dose curve.
# How the values were obtained:
# [1] = biological target: Estrogen receptor (Homo sapiens) (UniProt P03372); assay: qHTS assay for small molecule antagonists of estrogen receptor alpha signaling (AID 588513; active = well fitted curve in the direction sought with a large enough effect in the signal ratio, with a control signal flat, not every such curve was filed as active; inconclusive = small, poorly fitted or top-dose-only effect, or effect the other way, or a change in a side signal; inactive = no such curve, though single readings can be large or run the other way; the % refers to the signal ratio; also: potency is read from the fitted curve at half-maximal effect; as to activity, negative = inhibition: % is scaled to controls: 0 for no effect and ±100 for the full control effect); conditions: ER-alpha-UAS-bla HEK293, beta-lactamase ratio, antagonist mode; activity, negative = inhibition: at 76.9 µM (top of the series) unless noted
# UniProt P03372, sequence (P03372 whole entry, looked up): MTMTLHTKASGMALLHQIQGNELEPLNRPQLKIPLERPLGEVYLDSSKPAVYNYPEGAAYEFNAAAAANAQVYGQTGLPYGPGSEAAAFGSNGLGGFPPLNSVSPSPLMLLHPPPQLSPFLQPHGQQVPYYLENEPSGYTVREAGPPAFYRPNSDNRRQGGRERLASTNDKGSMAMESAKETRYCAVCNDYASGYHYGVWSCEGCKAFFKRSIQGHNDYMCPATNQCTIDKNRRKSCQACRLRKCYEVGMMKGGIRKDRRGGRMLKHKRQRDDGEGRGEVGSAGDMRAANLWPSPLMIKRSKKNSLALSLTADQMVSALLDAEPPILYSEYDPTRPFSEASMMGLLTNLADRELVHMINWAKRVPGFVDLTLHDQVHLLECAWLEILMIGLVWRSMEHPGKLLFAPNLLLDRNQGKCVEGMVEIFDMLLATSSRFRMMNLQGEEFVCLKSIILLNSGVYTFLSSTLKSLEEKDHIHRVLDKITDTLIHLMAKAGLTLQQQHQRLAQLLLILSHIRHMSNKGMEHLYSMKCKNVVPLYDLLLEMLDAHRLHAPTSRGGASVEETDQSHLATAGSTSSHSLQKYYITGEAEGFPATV
# In short: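 ER-alpha-UAS-bla GripTite HEK 293 cells in medium with 2% charcoal/dextran-treated FBS were preincubated 4 h at 37 C, dosed with compound (1:2 titration), stimulated with 0.5nM 17-beta-estradiol for 18 h, then read by CCF4 beta-lactamase fluorescence.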
# [2] = biological target: Estrogen receptor (Homo sapiens) (UniProt P03372); assay: qHTS assay for small molecule agonists of estrogen receptor alpha signaling (AID 588514); conditions: ER-alpha-UAS-bla HEK293, beta-lactamase ratio, 18 h; activation: at 76.8 µM (top of the series), percent of full estradiol response, vehicle zero; also: nearly all actives have a fitted effect of over 70% in size; also: potency is read from the fitted curve at half-maximal effect;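 as to activation: 0% = vehicle only and 100% = reference agonist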
# In short: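 Efficacy is expressed against 20 nM 17-beta-estradiol (100%) and DMSO basal (0%); EC50 from Hill equation. Assay: beta-lactamase reporter in ER-alpha-UAS-bla HEK 293 cells, 18 h compound incubation, CCF4 detection.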
# [3] = biological target: Glucocorticoid receptor (Homo sapiens) (UniProt P04150); assay: qHTS assay for small molecule agonists of glucocorticoid receptor signaling (AID 588532; active = well fitted curve in the direction sought with a large enough effect in the signal ratio, with a control signal flat; inconclusive = small, poorly fitted or top-dose-only effect, or a change in a side signal; inactive = no such curve, though single readings can be large or run the other way; the % refers to the signal ratio;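 also: 100% = dexamethasone at 0.1 µM and 0% = DMSO only wells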); conditions: HeLa MMTV-bla, beta-lactamase ratio, agonist, 18 h; activation: stronger effect = higher value, percent of dexamethasone control, DMSO zero
# In short: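 MMTV-bla HeLa beta-lactamase reporter cells in 1% charcoal/dextran FBS medium, compounds up to 92 uM for 18 h at 37 C, CCF4 readout; normalized to 0.1 uM dexamethasone (100%), EC50 and efficacy from Hill fits.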
# [4] = biological target: Vitamin D3 receptor (Homo sapiens) (UniProt P11473); assay: qHTS assay for small molecule agonists of vitamin D receptor signaling (AID 588543); conditions: HEK293T VDR-UAS-bla, beta-lactamase ratio, 16 h; activation: at 76.8 µM (top of the series);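 also: 0% = DMSO basal and 100% = reference agonist control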
# In short: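 GeneBLAzer VDR-UAS-bla HEK293T cells in 2% charcoal-stripped FBS medium were dosed with compound titrations for 16 h at 37 °C; CCF4 β-lactamase readout (405 nm ex, 460/530 nm em). EC50 and efficacy from Hill fits, normalized to 50 nM calcitriol (100%) and DMSO (0%).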
# [5] = biological target: Thyroid hormone receptor beta (Homo sapiens) (UniProt P10828); assay: qHTS assay for small molecule antagonists of thyroid hormone receptor beta signaling (AID 588547; active = well fitted inhibition curve with a large enough effect in the signal ratio, with a control signal flat, not every such curve was filed as active; inconclusive = small, poorly fitted or top-dose-only effect, or effect the other way, or a change in a side signal; the % refers to the signal ratio; also: potency is read from the fitted curve at half-maximal effect;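 as to activity change % (negative = inhibition): cells stimulated with 0.4 nM T3 agonist during compound exposure; % is scaled to controls: 0 for no effect and ±100 for the full control effect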); conditions: TR-UAS-bla HEK293, beta-lactamase ratio, antagonist mode, 18 h
# UniProt P10828, sequence (P10828 whole entry, looked up): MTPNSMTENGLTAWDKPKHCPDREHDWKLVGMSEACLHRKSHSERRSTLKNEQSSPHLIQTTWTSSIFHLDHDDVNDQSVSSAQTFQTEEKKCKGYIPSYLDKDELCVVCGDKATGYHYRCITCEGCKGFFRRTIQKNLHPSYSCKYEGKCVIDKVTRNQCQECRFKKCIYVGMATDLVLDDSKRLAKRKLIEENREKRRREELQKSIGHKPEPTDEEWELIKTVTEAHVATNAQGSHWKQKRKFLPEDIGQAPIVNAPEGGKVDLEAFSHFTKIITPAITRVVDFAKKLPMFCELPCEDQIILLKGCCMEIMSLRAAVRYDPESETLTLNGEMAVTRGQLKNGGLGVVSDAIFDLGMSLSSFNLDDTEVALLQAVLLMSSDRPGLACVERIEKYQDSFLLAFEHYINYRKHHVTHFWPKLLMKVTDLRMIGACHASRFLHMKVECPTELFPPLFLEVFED
# In short: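 TR-UAS-bla GripTite HEK293 cells in 2% charcoal/dextran FBS medium; compounds 0.59 nM to 92 uM with T3 at 0.4nM final, 18 h at 37 C. Beta-lactamase read by CCF4 fluorescence (460/530 nm); Hill fits gave IC50 and efficacy.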
# [6] = qHTS assay for small molecule agonists of the antioxidant response element (ARE) signaling pathway (AID 651741; active = well fitted activation curve with a large enough effect in the signal ratio; inconclusive = small, poorly fitted or top-dose-only effect, or effect the other way, or a change in a side signal; the % refers to the signal ratio; also: potency is read from the fitted curve at half-maximal effect; as to activation: % of control where 0% means no effect); conditions: HepG2 ARE-bla reporter, beta-lactamase FRET ratio, 16 h; activation: at 96 µM (top of the series) unless noted
# In short: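 Stably integrated ARE-beta-lactamase reporter HepG2 cells; 16 h compound incubation, 37 C; LiveBLAzer FRET substrate 2 h at room temperature; fluorescence intensity.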
# [7] = qHTS assay for small molecule activators of the p53 signaling pathway (AID 651743; active = well fitted activation curve with a large enough effect in the signal ratio, not every such curve was filed as active; inconclusive = small, poorly fitted or top-dose-only effect, or a change in a side signal; the % refers to the signal ratio; also: potency is read from the fitted curve at half-maximal effect; as to activation: % of control where 0% means no effect); conditions: HCT-116 p53RE-bla, beta-lactamase FRET ratio, 16 h; activation: stronger effect = higher value
# In short: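 Following 16 hours of compound exposure at 37 C, HCT-116 cells bearing the p53RE-bla reporter were loaded with LiveBLAzer B/G FRET substrate for 2 hours at room temperature and fluorescence intensity was recorded.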
# [8] = biological target: Androgen receptor (Homo sapiens) (UniProt P10275); assay: qHTS assay for small molecule agonists of androgen receptor signaling (AID 588515; active = well fitted curve in the direction sought with a large enough effect in the signal ratio, with a control signal flat; inconclusive = small, poorly fitted or top-dose-only effect, or effect the other way, or a change in a side signal; inactive = no such curve, though single readings can be large or run the other way; the % refers to the signal ratio; also: potency is read from the fitted curve at half-maximal effect); conditions: AR-UAS-bla HEK293, beta-lactamase ratio, agonist 16 h; activation: stronger effect = higher value
# UniProt P10275, sequence (P10275 whole entry, looked up): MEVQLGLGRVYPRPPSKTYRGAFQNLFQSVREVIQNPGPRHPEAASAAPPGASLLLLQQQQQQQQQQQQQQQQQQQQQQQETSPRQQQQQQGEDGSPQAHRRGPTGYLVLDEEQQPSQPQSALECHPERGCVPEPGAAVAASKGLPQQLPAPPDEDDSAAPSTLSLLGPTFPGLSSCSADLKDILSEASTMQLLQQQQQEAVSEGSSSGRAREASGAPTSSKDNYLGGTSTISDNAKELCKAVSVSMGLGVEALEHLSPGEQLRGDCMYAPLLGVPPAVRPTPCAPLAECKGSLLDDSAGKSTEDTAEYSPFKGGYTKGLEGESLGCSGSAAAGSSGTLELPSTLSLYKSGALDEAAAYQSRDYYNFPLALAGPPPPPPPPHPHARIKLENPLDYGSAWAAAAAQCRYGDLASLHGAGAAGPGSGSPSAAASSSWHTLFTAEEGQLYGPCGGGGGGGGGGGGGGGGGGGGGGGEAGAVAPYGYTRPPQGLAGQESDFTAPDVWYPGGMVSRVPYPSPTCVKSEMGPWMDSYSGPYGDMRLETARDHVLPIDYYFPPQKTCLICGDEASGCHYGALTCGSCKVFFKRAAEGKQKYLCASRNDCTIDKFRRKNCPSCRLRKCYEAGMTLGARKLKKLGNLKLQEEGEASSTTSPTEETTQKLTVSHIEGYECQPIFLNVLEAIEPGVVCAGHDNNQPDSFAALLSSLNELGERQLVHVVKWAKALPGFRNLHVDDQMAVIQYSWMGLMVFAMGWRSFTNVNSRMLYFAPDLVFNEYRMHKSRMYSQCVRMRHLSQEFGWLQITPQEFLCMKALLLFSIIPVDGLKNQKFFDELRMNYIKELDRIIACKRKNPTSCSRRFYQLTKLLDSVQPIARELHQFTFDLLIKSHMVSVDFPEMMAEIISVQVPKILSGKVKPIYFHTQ
# In short: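 Stimulation of an AR-responsive β-lactamase reporter in GripTite HEK293 cells was measured after 16 h compound exposure at 37 °C, via CCF4 fluorescence after 2 h RT. EC50 from Hill fits, normalized to R1881 at 30 nM.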
# [9] = biological target: Androgen receptor (Homo sapiens) (UniProt P10275); assay: qHTS assay for small molecule antagonists of androgen receptor signaling (AID 588516; active = well fitted curve in the direction sought with a large enough effect in the signal ratio, with a control signal flat, not every such curve was filed as active; inconclusive = small, poorly fitted or top-dose-only effect, or effect the other way, or a change in a side signal; inactive = no such curve, though single readings can be large or run the other way; the % refers to the signal ratio; also: potency is read from the fitted curve at half-maximal effect); conditions: AR-UAS-bla HEK293, beta-lactamase ratio, antagonist mode, 16 h; activity change, negative = inhibition: at 76.8 µM (top of the series)
# In short: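 Antagonist mode: inhibition of R1881-stimulated (10 nM final) bla reporter in GeneBLAzer AR HEK 293 cells, 16 h at 37C, compounds titrated. IC50 and efficacy from Hill-equation fits of 405/460–530 nm FRET ratios.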
# [10] = biological target: Glucocorticoid receptor (Homo sapiens) (UniProt P04150); assay: qHTS assay for small molecule antagonists of glucocorticoid receptor signaling (AID 588533; active = well fitted inhibition curve with a large enough effect in the signal ratio, with a control signal flat, not every such curve was filed as active; inconclusive = small, poorly fitted or top-dose-only effect, or effect the other way, or a change in a side signal; the % refers to the signal ratio;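 also: cells stimulated with 2 nM dexamethasone as agonist; % is scaled to controls: 0 for no effect and ±100 for the full control effect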); conditions: HeLa MMTV-bla, GRE beta-lactamase ratio, antagonist mode, 18 h; activity change, negative = inhibition: at 76.8 µM (top of the series) unless noted
# [11] = biological target: Peroxisome proliferator-activated receptor delta (Homo sapiens) (UniProt Q03181); assay: qHTS assay for small molecule agonists of peroxisome proliferator-activated receptor delta signaling (AID 588534); conditions: HEK293T PPARdelta-UAS-bla, beta-lactamase ratio, 18 h; activation: at 76.7 µM (top of the series); also: potency is read from the fitted curve at half-maximal effect
# UniProt Q03181, sequence (Q03181 whole entry, looked up): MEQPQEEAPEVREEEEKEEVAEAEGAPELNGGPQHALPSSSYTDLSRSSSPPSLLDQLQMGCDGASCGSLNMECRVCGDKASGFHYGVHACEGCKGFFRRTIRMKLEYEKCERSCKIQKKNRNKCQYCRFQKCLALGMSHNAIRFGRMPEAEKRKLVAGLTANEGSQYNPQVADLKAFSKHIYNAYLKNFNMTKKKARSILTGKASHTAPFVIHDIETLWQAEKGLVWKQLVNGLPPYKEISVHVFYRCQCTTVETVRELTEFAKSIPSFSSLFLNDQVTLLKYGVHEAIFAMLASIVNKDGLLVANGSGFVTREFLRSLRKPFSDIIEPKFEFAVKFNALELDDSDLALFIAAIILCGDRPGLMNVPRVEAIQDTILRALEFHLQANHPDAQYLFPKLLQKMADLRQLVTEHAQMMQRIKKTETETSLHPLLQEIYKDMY
# In short: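 Agonist-mode qHTS; reporter cells, 5 hrs 37 C pre-incubation; compound titration, 18 hrs 37 C; CCF4 dye, 2 hrs RT; fluorescence read. EC50/efficacy via Hill fit.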
# [12] = biological target: Peroxisome proliferator-activated receptor delta (Homo sapiens) (UniProt Q03181); assay: qHTS assay for small molecule antagonists of peroxisome proliferator-activated receptor delta signaling (AID 588535; active = well fitted inhibition curve with a large enough effect in the signal ratio, with a control signal flat, not every such curve was filed as active; inconclusive = small, poorly fitted or top-dose-only effect, or effect the other way, or a change in a side signal; inactive = no such curve, though single readings can be large or run the other way; the % refers to the signal ratio; also: potency is read from the fitted curve at half-maximal effect); conditions: HEK293T PPARd-UAS-bla, beta-lactamase FRET ratio, 18 h; activity change, negative = inhibition: at 76.7 µM (top of the series) unless noted
# In short: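 Fluorescence from CCF4-loaded GeneBLAzer PPAR-delta-UAS-bla HEK293T cells (2 hrs RT loading) quantified reporter inhibition after an 18 hr, 37 C compound exposure across a titration.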
# [13] = biological target: Vitamin D3 receptor (Homo sapiens) (UniProt P11473); assay: qHTS assay for small molecule antagonists of vitamin D receptor signaling (AID 588541); conditions: HEK293T VDR-UAS-bla, beta-lactamase ratio, antagonist mode; activity change, negative = inhibition: at 76.7 µM (top of the series); also: potency is read from the fitted curve at half-maximal effect
# [14] = biological target: Retinoic acid receptor RXR-alpha (Homo sapiens) (UniProt P19793); assay: qHTS assay for small molecule antagonists of retinoid X receptor alpha signaling (AID 588546; active = well fitted inhibition curve with a large enough effect in the signal ratio, with a control signal flat, not every such curve was filed as active; inconclusive = small, poorly fitted or top-dose-only effect, or effect the other way, or a change in a side signal; inactive = no such curve, though single readings can be large or run the other way; the % refers to the signal ratio;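 also: cells stimulated with 9-cis-retinoic acid as agonist; % is scaled to controls: 0 for no effect and ±100 for the full control effect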); conditions: HEK293T RXRa-UAS-bla, beta-lactamase ratio, antagonist mode
# UniProt P19793, sequence (P19793 whole entry, looked up): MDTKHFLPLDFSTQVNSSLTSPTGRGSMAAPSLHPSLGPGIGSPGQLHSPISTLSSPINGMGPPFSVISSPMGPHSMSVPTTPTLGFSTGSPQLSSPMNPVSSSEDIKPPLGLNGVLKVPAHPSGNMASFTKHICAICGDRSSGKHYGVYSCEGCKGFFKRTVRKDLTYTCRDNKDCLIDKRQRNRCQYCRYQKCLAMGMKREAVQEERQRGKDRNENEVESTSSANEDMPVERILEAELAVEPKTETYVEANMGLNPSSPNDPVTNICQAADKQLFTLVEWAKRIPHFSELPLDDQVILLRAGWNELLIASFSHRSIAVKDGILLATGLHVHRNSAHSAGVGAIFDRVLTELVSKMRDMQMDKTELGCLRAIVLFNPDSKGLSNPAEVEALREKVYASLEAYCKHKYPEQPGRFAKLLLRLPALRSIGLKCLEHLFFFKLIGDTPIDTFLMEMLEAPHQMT
# In short: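 Beta-lactamase reporter inhibition, read as CCF4 fluorescence ratio (ex 405, em 460/530 nm) after 2 h at RT. HEK293T UAS-bla cells, 2500/well, were stimulated with 9-cis-RA at 500 or 100 nM final alongside test compound for 18 h at 37 C.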
# [15] = biological target: Peroxisome proliferator-activated receptor gamma (Homo sapiens) (UniProt P37231); assay: qHTS assay for small molecule antagonists of peroxisome proliferator-activated receptor gamma signaling (AID 588537; active = well fitted inhibition curve with a large enough effect in the signal ratio, with a control signal flat, not every such curve was filed as active; inconclusive = small, poorly fitted or top-dose-only effect, or effect the other way, or a change in a side signal; the % refers to the signal ratio;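 also: reporter cells co-stimulated with 50 nM rosiglitazone agonist during compound treatment; % of control where 0% means no effect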); conditions: HEK293 PPARg-UAS-bla, beta-lactamase ratio, antagonist mode; activity, negative = inhibition: at 76.8 µM (top of the series)
# In short: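 Fluorescence at 460 and 530 nm (405 nm excitation) reported beta-lactamase cleavage of CCF4 after 2 h room-temperature loading. HEK293 reporter cells in 1% charcoal/dextran-treated FBS had received compound and rosiglitazone for 16 h.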
# [16] = biological target: Retinoic acid receptor RXR-alpha (Homo sapiens) (UniProt P19793); assay: qHTS assay for small molecule agonists of retinoid X receptor alpha signaling (AID 588544); conditions: HEK293T RXRa-UAS-bla, beta-lactamase reporter, 18 h; activation: at 76.7 µM (top of the series) unless noted; also: potency is read from the fitted curve at half-maximal effect
# Tags tell the direction and shape of the fitted curve or compound fluorescence and quenching.
smiles,measurement,setting,value
COc1nc(C)nc(NC(=O)NS(=O)(=O)c2ccccc2Cl)n1,Potency,[1],inactive
same,Potency,[2],inactive
same,activation,[3],inactive: -6.7%
same,Potency,[4],inactive
same,Potency,[5],"inconclusive [side channel, falling, partial curve, poor fit]"
same,Potency,[6],inactive
same,activation,[7],inactive: -1.02%
CO/N=C(/C(=O)OC)c1ccccc1COc1ccccc1C,Potency,[1],"inconclusive [side channel, rising, partial curve, poor fit]"
same,Potency,[8],"inconclusive [side channel, rising, full curve, poor fit]"
same,Potency,[9],"inconclusive [falling, partial curve]"
same,"activity change, negative = inhibition",[10],inconclusive: 2.87%
same,Potency,[11],"inconclusive [side channel, rising, partial curve]"
same,Potency,[12],"inconclusive [side channel, rising, full curve, poor fit]"
same,Potency,[13],"inconclusive [side channel, rising, full curve, poor fit]"
same,max response,[14],inconclusive: -76.8%
same,activity change % (negative = inhibition),[5],inactive: -29.5%
same,Potency,[7],active: 25.1 µM
O=C(O)c1nc(Cl)ccc1Cl,Potency,[1],"inconclusive [side channel, rising, partial curve, poor fit]"
same,Potency,[2],inactive
same,activity change % (negative = inhibition),[5],inconclusive: 15.4% and inactive: -7.12%
same,Potency,[6],"inconclusive [activator, partial curve, poor fit]"
same,Potency,[7],"inconclusive [activator, single point]"
COP(=S)(OC)Oc1c(Cl)cc(C)cc1Cl,Potency,[1],inactive
same,activation,[2],inconclusive: 53.3%
same,"activity change, negative = inhibition",[10],inconclusive: -30.2%
same,max response,[14],inactive: -12.7%
same,activation,[6],inconclusive: 17.9%
CCOC(=O)C(C)OC(=O)c1cc(Oc2ccc(C(F)(F)F)cc2Cl)ccc1[N+](=O)[O-] (centres undefined),"activity, negative = inhibition",[1],inconclusive: -53.4%
same,activation,[2],inconclusive: -4.63%
same,Potency,[11],"inconclusive [side channel, rising, single point]"
same,"activity, negative = inhibition",[15],inconclusive: -76.6%
same,Potency,[16],"inconclusive [inhibitor, full curve]"
same,max response,[14],inconclusive: -44.9%
same,Potency,[6],"inconclusive [inhibitor, partial curve, poor fit]"
CCCCCCCCCCCCN(C)C,"activity, negative = inhibition",[1],inconclusive: 0.241%
same,Potency,[2],"inconclusive [inhibitor, partial curve, poor fit]"
same,Potency,[10],inactive
same,Potency,[15],inactive
same,Potency,[6],inactive
